What was measured:
Assay in all cases: pull-down of 35S-labelled conditioned medium with receptor-Ig on protein A-Sepharose, SDS-PAGE
[1] = target: T1, VEGFR-1-Ig (human, UniProt P17948 27-758)
T1 construct: extracellular domain; Transiently expressed in 293 EBNA cells and captured on protein A-Sepharose; Construct as in Olofsson et al., 1998; also called soluble Ig-fusion protein containing the extracellular domain of human VEGFR-1; not shown: Ig part of the fusion; not described

[2] = target: T2, VEGFR-2-Ig (human, UniProt P35968 20-764)
T2 construct: extracellular domain; also called soluble Ig-fusion protein containing the extracellular domain of human VEGFR-2; not shown: Ig part of the fusion; not described

[3] = target: T3, VEGFR-3-Ig (human, UniProt P35916 25-775)
T3 construct: extracellular domain; Transiently expressed in 293 EBNA cells and captured on protein A-Sepharose; also called soluble Ig-fusion protein containing the extracellular domain of human VEGFR-3; not shown: Ig part of the fusion; not described
T3 sequence (looked up): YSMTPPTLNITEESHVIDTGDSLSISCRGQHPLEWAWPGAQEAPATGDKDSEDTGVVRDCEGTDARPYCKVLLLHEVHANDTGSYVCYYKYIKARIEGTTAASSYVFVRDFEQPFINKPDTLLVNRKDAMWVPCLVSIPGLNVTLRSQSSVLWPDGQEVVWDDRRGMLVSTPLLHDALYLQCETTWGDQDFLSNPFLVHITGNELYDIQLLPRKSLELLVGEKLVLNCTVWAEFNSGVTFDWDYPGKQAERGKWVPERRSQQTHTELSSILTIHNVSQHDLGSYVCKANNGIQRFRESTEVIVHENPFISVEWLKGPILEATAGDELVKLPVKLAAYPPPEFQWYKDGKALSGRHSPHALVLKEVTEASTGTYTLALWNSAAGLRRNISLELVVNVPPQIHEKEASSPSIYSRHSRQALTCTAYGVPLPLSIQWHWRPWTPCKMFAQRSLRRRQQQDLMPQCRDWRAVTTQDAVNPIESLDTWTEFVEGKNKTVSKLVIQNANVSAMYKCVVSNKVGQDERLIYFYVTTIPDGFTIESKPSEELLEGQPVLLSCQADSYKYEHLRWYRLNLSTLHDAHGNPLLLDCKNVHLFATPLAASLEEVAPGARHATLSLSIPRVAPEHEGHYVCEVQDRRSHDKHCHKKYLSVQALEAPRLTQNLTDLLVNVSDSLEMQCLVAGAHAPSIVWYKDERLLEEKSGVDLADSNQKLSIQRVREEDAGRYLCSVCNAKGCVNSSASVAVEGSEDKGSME

Measured: binding result

T2 sequence (P35968 20-764): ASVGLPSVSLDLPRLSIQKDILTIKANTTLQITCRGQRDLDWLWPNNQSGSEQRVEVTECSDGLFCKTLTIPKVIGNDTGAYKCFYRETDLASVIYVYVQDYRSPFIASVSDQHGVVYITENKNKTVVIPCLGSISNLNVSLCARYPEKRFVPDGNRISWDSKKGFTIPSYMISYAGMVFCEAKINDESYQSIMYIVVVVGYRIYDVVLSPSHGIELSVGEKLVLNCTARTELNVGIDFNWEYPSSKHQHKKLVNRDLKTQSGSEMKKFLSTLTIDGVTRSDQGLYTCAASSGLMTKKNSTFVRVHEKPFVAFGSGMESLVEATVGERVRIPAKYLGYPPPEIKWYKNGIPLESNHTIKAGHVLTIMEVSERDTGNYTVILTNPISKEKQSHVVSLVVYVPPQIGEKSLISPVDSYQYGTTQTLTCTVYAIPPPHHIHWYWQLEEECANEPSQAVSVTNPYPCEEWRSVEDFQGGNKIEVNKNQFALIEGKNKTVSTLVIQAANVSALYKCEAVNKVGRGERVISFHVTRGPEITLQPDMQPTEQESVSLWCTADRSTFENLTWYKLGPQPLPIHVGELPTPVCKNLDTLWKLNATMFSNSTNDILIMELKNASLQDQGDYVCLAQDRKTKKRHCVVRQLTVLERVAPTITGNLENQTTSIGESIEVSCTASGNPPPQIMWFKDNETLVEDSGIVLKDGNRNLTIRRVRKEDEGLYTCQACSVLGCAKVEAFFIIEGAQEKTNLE
T1 sequence (P17948 27-758): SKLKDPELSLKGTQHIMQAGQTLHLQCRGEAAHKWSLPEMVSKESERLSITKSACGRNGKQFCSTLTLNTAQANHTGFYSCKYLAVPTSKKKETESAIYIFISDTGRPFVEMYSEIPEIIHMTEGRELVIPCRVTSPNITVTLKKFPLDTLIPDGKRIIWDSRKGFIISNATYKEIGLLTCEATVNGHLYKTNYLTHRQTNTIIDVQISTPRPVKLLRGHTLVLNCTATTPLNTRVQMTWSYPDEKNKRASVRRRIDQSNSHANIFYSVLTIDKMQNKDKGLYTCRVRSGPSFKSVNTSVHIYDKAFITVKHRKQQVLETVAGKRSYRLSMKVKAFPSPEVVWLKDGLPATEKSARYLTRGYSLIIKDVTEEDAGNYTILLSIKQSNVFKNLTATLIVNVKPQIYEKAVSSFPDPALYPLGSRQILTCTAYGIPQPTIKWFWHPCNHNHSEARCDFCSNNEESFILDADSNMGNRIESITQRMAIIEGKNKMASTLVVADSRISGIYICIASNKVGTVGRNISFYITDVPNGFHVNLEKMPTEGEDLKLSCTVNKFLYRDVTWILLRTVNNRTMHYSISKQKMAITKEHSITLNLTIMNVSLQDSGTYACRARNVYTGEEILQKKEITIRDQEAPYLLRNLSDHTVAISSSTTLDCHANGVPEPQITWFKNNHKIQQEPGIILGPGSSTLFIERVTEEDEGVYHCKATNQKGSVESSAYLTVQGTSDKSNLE

B1: truncated PDGF-D (PDGF/VEGF homology domain expressed from pSecTag in COS cells) (ligand)
chain: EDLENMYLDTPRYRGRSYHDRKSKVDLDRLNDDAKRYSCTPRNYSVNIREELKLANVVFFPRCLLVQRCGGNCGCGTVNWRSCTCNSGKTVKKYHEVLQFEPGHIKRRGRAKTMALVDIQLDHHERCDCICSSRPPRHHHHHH
modifications: metabolically labeled with 35S-cysteine and methionine
notes: also called secreted truncated PDGF-D; radiolabeled PDGF-D; not shown: C-terminal c-myc tag derived from the pSecTag vector
no binding: all assays above

Reference: US20050209136A1 (LUDWIG INSTITUTE FOR CANCER RESEARCH, published 2005)
